# Test results taken from the supplement of paper PMC8728848.
# Some of the results follow.
# Columns and labels:
# Test in all cases: glycan array binding signal (z-score within array); higher = stronger binding
# Conditions in all cases: glycan notation: IUPAC condensed, linker removed; mutation: R74S
# [1] = target: Gal(a1-6)Glc
# In short: (§1)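 Negative Z-scores can be read as non-binding. The Z-score is calculated within each array and then averaged across arrays of one protein sequence at different concentrations or buffers and across linkers. Arrays, 3228 in all, were curated from the Consortium for Functional Glycomics database and kept only where the protein sequence was available.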
# [2] = target: Gal(b1-2)Gal
# In short: as §1
# [3] = target: Gal(b1-3)Gal
# In short: as §1
# [4] = target: Gal(b1-3)Gal(b1-4)GlcNAc
# In short: as §1
# [5] = target: Gal(b1-3)GalNAc
# In short: as §1
# [6] = target: Gal(b1-3)GalNAc(a1-3)[Fuc(a1-2)]Gal(b1-4)Glc
# In short: as §1
# [7] = target: Gal(b1-3)GalNAc(a1-3)[Fuc(a1-2)]Gal(b1-4)GlcNAc
# In short: as §1
# [8] = target: Gal(b1-3)GalNAc(b1-3)Gal
# In short: as §1
# [9] = target: Gal(b1-3)GalNAc(b1-3)Gal(a1-4)Gal(b1-4)Glc
# In short: as §1
# [10] = target: Gal(b1-3)GalNAc(b1-4)Gal(b1-4)Glc
# In short: as §1
# [11] = target: Gal(b1-3)GalNAc(b1-4)[Neu5Ac(a2-3)]Gal(b1-4)Glc
# In short: as §1
# [12] = target: Gal(b1-3)GlcNAc
# In short: as §1
# [13] = target: Gal(b1-3)GlcNAc(a1-3)Gal(b1-4)GlcNAc
# In short: as §1
# [14] = target: Gal(b1-3)GlcNAc(a1-6)Gal(b1-4)GlcNAc
# In short: as §1
# [15] = target: Gal(b1-3)GlcNAc(b1-2)Man
# In short: as §1
# [16] = target: Gal(b1-3)GlcNAc(b1-2)Man(a1-3)[Gal(b1-3)GlcNAc(b1-2)Man(a1-6)]Man(b1-4)GlcNAc(b1-4)GlcNAc
# In short: as §1
# [17] = target: Gal(b1-3)GlcNAc(b1-2)Man(a1-3)[Gal(b1-3)GlcNAc(b1-2)Man(a1-6)]Man(b1-4)GlcNAc(b1-4)[Fuc(a1-6)]GlcNAc
# In short: as §1
# [18] = target: Gal(b1-3)GlcNAc(b1-2)Man(a1-3)[GlcNAc(b1-4)][Gal(b1-3)GlcNAc(b1-2)Man(a1-6)]Man(b1-4)GlcNAc(b1-4)GlcNAc
# In short: as §1
# [19] = target: Gal(b1-3)GlcNAc(b1-2)[Gal(b1-3)GlcNAc(b1-6)]Man(a1-6)[Gal(b1-3)GlcNAc(b1-2)Man(a1-3)]Man(b1-4)GlcNAc(b1-4)GlcNAc
# In short: as §1
# [20] = target: Gal(b1-3)GlcNAc(b1-3)Gal(b1-3)GlcNAc
# In short: as §1
# [21] = target: Gal(b1-3)GlcNAc(b1-3)Gal(b1-4)Glc
# In short: as §1
# [22] = target: Gal(b1-3)GlcNAc(b1-3)Gal(b1-4)GlcNAc
# In short: as §1
# [23] = target: Gal(b1-3)GlcNAc(b1-3)Gal(b1-4)GlcNAc(b1-2)Man(a1-3)[Gal(b1-3)GlcNAc(b1-3)Gal(b1-4)GlcNAc(b1-2)Man(a1-6)]Man(b1-4)GlcNAc(b1-4)GlcNAc
# In short: as §1
# [24] = target: Gal(b1-3)GlcNAc(b1-3)Gal(b1-4)GlcNAc(b1-2)[Gal(b1-3)GlcNAc(b1-3)Gal(b1-4)GlcNAc(b1-6)]Man(a1-6)[Gal(b1-3)GlcNAc(b1-3)Gal(b1-4)GlcNAc(b1-2)Man(a1-3)]Man(b1-4)GlcNAc(b1-4)[Fuc(a1-6)]GlcNAc
# In short: as §1
# [25] = target: Gal(b1-3)GlcNAc(b1-3)Gal(b1-4)GlcNAc(b1-3)Gal(b1-4)GlcNAc(b1-2)[Gal(b1-3)GlcNAc(b1-3)Gal(b1-4)GlcNAc(b1-3)Gal(b1-4)GlcNAc(b1-6)]Man(a1-6)[Gal(b1-3)GlcNAc(b1-3)Gal(b1-4)GlcNAc(b1-3)Gal(b1-4)GlcNAc(b1-2)Man(a1-3)]Man(b1-4)GlcNAc(b1-4)[Fuc(a1-6)]GlcNAc
# In short: as §1
# [26] = target: Gal(b1-3)GlcNAc(b1-3)Gal(b1-4)GlcNAc(b1-6)[Gal(b1-3)GlcNAc(b1-3)]Gal(b1-4)Glc
# In short: as §1
# [27] = target: Gal(b1-3)GlcNAc(b1-3)Gal(b1-4)[Fuc(a1-3)]GlcNAc
# In short: as §1
# [28] = target: Gal(b1-3)GlcNAc(b1-3)Gal(b1-4)[Fuc(a1-3)]GlcNAc(b1-6)[Gal(b1-3)GlcNAc(b1-3)]Gal(b1-4)Glc
# In short: as §1
# [29] = target: Gal(b1-3)GlcNAc(b1-3)GalNAc
# In short: as §1
# [30] = target: Gal(b1-3)GlcNAc(b1-6)Gal(b1-4)GlcNAc
# In short: as §1
# [31] = target: Gal(b1-3)GlcNAc(b1-6)GalNAc
# In short: as §1
# [32] = target: Gal(b1-3)GlcNAc(b1-6)[Gal(b1-3)]GalNAc
# In short: as §1
# [33] = target: Gal(b1-3)GlcNAc6S
# In short: as §1
# [34] = target: Gal(b1-3)[Fuc(a1-4)]GlcNAc
# In short: as §1
# [35] = target: Gal(b1-3)[Fuc(a1-4)]GlcNAc(b1-2)Man
# In short: as §1
# [36] = target: Gal(b1-3)[Fuc(a1-4)]GlcNAc(b1-2)Man(a1-3)[Gal(b1-3)[Fuc(a1-4)]GlcNAc(b1-2)Man(a1-6)]Man(b1-4)GlcNAc(b1-4)[Fuc(a1-6)]GlcNAc
# In short: as §1
# [37] = target: Gal(b1-3)[Fuc(a1-4)]GlcNAc(b1-3)Gal(b1-3)[Fuc(a1-4)]GlcNAc
# In short: as §1
# [38] = target: Gal(b1-3)[Fuc(a1-4)]GlcNAc(b1-3)Gal(b1-4)[Fuc(a1-3)]GlcNAc
# In short: as §1
# [39] = target: Gal(b1-3)[Fuc(a1-4)]GlcNAc(b1-6)GalNAc
# In short: as §1
# [40] = target: Gal(b1-3)[GlcNAc(b1-6)]GalNAc
# In short: as §1
# [41] = target: Gal(b1-3)[Neu5Ac(a2-6)]GalNAc
# In short: as §1
# [42] = target: Gal(b1-3)[Neu5Ac(a2-6)]GlcNAc(b1-4)Gal(b1-4)Glc
# In short: as §1
# [43] = target: Gal(b1-3)[Neu5Ac(b2-6)]GalNAc
# In short: as §1
# [44] = target: Gal(b1-4)Gal
# In short: as §1
# [45] = target: Gal(b1-4)GalNAc(a1-3)[Fuc(a1-2)]Gal(b1-4)GlcNAc
# In short: as §1
binder,measurement,setting,value
Gal 7 (Homo sapiens) (protein) MSNVPHKSSLPEGIRPGTVLRIRGLVPPNASRFHVNLLCGEEGGSDAALHFNPRLDTSEVVFNSKEGGSWGREESGPGVPFGRGQPFEVLIIASDDGFKAVVGDAQYHHFRHRLPLARVRLVEVGGDVQLDSVRIF,glycan array binding signal (z-score),[1],-0.367
same,glycan array binding signal (z-score),[2],-0.04
same,glycan array binding signal (z-score),[3],-0.443
same,glycan array binding signal (z-score),[4],-0.425
same,glycan array binding signal (z-score),[5],-0.37
same,glycan array binding signal (z-score),[6],-0.236
same,glycan array binding signal (z-score),[7],-0.419
same,glycan array binding signal (z-score),[8],0.336
same,glycan array binding signal (z-score),[9],-0.561
same,glycan array binding signal (z-score),[10],-0.228
same,glycan array binding signal (z-score),[11],-0.556
same,glycan array binding signal (z-score),[12],-0.127
same,glycan array binding signal (z-score),[13],-0.366
same,glycan array binding signal (z-score),[14],-0.476
same,glycan array binding signal (z-score),[15],0.331
same,glycan array binding signal (z-score),[16],-0.529
same,glycan array binding signal (z-score),[17],0.404
same,glycan array binding signal (z-score),[18],0.83
same,glycan array binding signal (z-score),[19],-0.103
same,glycan array binding signal (z-score),[20],-0.548
same,glycan array binding signal (z-score),[21],-0.342
same,glycan array binding signal (z-score),[22],-0.473
same,glycan array binding signal (z-score),[23],-0.146
same,glycan array binding signal (z-score),[24],0.816
same,glycan array binding signal (z-score),[25],0.86
same,glycan array binding signal (z-score),[26],-0.069
same,glycan array binding signal (z-score),[27],-0.234
same,glycan array binding signal (z-score),[28],-0.355
same,glycan array binding signal (z-score),[29],-0.532
same,glycan array binding signal (z-score),[30],-0.301
same,glycan array binding signal (z-score),[31],-0.398
same,glycan array binding signal (z-score),[32],-0.445
same,glycan array binding signal (z-score),[33],-0.422
same,glycan array binding signal (z-score),[34],-0.383
same,glycan array binding signal (z-score),[35],0.195
same,glycan array binding signal (z-score),[36],1.68
same,glycan array binding signal (z-score),[37],-0.454
same,glycan array binding signal (z-score),[38],-0.452
same,glycan array binding signal (z-score),[39],-0.149
same,glycan array binding signal (z-score),[40],-0.429
same,glycan array binding signal (z-score),[41],0.399
same,glycan array binding signal (z-score),[42],-0.354
same,glycan array binding signal (z-score),[43],-0.589
same,glycan array binding signal (z-score),[44],-0.356
same,glycan array binding signal (z-score),[45],-0.282
